From PMC6891891
These are yes or no findings as the source states them, for the method shown. For part of these data: In cells and extracts the contact can be indirect. Some results given as binding are weak or reduced against the parent protein; the word gives no strength. For part of these data: Where a sequence is shown, tags or fusion partners need not be part of it.

Experiments:
[1] = biological target: T1, Ulp2-FLAG (endogenous Ulp2 tagged C-terminally with FLAG) (S. cerevisiae) (UniProt P40537); experiment: co-IP; IP with anti-FLAG antibody and protein G Sepharose from native yeast extracts (150 mM NaCl, 10% glycerol, 1% NP-40, 50 mM Tris HCl pH 8.0, with inhibitors incl. 20 mM NEM), overnight at 4°C; endogenously tagged Ulp2-FLAG and Dbf4-PK
T1 sequence: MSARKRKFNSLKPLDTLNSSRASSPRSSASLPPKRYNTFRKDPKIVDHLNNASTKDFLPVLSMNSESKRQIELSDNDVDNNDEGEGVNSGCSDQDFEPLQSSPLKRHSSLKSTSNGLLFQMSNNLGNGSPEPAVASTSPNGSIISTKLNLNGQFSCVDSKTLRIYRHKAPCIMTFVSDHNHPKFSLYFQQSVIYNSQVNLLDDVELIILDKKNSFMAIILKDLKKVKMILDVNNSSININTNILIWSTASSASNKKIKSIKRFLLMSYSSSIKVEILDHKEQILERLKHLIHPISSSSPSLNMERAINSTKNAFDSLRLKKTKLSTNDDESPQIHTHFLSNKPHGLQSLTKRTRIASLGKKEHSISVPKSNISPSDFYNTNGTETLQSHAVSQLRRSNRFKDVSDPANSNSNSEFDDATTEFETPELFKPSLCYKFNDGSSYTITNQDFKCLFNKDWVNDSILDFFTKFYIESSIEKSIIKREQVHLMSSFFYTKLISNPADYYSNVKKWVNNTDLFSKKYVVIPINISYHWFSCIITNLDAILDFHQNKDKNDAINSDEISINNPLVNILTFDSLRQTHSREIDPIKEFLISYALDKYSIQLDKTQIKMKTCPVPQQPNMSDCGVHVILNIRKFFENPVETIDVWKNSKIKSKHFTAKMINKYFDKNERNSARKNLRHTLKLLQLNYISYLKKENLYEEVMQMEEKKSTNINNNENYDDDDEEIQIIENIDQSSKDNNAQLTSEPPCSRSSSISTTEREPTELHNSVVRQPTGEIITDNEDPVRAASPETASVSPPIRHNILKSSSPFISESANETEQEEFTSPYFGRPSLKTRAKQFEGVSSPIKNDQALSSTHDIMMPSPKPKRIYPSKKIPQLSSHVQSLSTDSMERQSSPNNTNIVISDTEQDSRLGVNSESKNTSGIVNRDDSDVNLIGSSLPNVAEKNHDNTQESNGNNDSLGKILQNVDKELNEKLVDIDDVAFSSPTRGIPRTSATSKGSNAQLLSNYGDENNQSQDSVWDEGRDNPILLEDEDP

[2] = biological target: T2, Mcm4 subunit of the MCM helicase (S. cerevisiae) (UniProt P30665); experiment: co-IP; co-IP of Ulp2 and Mcm4 from native yeast extracts (Figure S1E); antibody and precipitated partner not given
T2 sequence: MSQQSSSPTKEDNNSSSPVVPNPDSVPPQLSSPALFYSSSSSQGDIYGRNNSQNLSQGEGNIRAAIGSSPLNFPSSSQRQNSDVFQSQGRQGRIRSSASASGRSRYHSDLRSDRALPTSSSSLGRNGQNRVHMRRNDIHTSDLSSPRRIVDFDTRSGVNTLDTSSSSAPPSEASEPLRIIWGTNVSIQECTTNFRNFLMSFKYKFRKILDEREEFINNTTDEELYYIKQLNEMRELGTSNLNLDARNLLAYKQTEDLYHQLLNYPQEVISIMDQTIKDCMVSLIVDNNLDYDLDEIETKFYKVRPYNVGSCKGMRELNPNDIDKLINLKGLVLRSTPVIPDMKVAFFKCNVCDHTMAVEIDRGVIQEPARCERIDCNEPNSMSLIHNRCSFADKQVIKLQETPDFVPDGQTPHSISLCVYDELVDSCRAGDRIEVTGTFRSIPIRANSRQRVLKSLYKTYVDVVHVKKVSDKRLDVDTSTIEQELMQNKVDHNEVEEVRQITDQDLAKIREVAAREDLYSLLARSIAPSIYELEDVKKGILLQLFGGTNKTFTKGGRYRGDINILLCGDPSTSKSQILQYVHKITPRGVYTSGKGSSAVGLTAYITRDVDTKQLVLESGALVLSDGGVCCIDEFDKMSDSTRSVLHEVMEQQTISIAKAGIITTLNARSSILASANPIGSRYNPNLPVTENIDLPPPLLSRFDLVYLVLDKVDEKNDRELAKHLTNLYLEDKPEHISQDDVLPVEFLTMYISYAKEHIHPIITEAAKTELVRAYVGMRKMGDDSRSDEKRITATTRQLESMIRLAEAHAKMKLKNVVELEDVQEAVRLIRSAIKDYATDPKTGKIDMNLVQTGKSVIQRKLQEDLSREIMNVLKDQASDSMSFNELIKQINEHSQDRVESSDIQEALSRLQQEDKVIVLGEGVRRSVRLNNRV

[3] = biological target: T3, Dbf4, AD-fusion and BD-fusion for Y2H (S. cerevisiae) (UniProt P32325); experiment: two-hybrid; directed Y2H: pGAD-C1 (AD) and pGBD-C1 (BD) fusions cotransformed into the Y2HGold strain; HIS3 reporter, 8 mM 3-AT added in Figure 4D
T3 sequence: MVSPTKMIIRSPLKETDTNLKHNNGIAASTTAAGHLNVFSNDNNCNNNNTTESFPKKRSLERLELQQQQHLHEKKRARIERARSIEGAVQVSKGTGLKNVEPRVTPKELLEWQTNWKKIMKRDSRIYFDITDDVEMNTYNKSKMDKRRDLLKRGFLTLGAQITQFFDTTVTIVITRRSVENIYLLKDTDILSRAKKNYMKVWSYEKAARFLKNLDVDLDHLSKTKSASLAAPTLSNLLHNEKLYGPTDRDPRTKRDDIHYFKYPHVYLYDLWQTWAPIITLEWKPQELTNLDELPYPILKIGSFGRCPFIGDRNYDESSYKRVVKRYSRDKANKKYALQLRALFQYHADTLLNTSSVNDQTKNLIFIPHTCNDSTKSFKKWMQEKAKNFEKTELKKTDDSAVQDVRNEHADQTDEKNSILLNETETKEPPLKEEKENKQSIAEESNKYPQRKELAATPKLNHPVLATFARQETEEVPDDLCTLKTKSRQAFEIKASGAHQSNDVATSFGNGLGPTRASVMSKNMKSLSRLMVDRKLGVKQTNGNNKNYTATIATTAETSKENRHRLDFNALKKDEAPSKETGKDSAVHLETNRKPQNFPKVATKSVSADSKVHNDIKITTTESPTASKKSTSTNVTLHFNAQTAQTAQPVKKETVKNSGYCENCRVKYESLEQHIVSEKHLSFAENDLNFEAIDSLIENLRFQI

B1: Dbf4-PK (endogenous Dbf4 tagged C-terminally with PK) (protein, UniProt P32325 1-704)
chain: MVSPTKMIIRSPLKETDTNLKHNNGIAASTTAAGHLNVFSNDNNCNNNNTTESFPKKRSLERLELQQQQHLHEKKRARIERARSIEGAVQVSKGTGLKNVEPRVTPKELLEWQTNWKKIMKRDSRIYFDITDDVEMNTYNKSKMDKRRDLLKRGFLTLGAQITQFFDTTVTIVITRRSVENIYLLKDTDILSRAKKNYMKVWSYEKAARFLKNLDVDLDHLSKTKSASLAAPTLSNLLHNEKLYGPTDRDPRTKRDDIHYFKYPHVYLYDLWQTWAPIITLEWKPQELTNLDELPYPILKIGSFGRCPFIGDRNYDESSYKRVVKRYSRDKANKKYALQLRALFQYHADTLLNTSSVNDQTKNLIFIPHTCNDSTKSFKKWMQEKAKNFEKTELKKTDDSAVQDVRNEHADQTDEKNSILLNETETKEPPLKEEKENKQSIAEESNKYPQRKELAATPKLNHPVLATFARQETEEVPDDLCTLKTKSRQAFEIKASGAHQSNDVATSFGNGLGPTRASVMSKNMKSLSRLMVDRKLGVKQTNGNNKNYTATIATTAETSKENRHRLDFNALKKDEAPSKETGKDSAVHLETNRKPQNFPKVATKSVSADSKVHNDIKITTTESPTASKKSTSTNVTLHFNAQTAQTAQPVKKETVKNSGYCENCRVKYESLEQHIVSEKHLSFAENDLNFEAIDSLIENLRFQI
With B1 the binding [1] was “binds”.

B2: Ulp2 in the co-immunoprecipitation with Mcm4 (enzyme, UniProt P40537 1-1034)
chain: MSARKRKFNSLKPLDTLNSSRASSPRSSASLPPKRYNTFRKDPKIVDHLNNASTKDFLPVLSMNSESKRQIELSDNDVDNNDEGEGVNSGCSDQDFEPLQSSPLKRHSSLKSTSNGLLFQMSNNLGNGSPEPAVASTSPNGSIISTKLNLNGQFSCVDSKTLRIYRHKAPCIMTFVSDHNHPKFSLYFQQSVIYNSQVNLLDDVELIILDKKNSFMAIILKDLKKVKMILDVNNSSININTNILIWSTASSASNKKIKSIKRFLLMSYSSSIKVEILDHKEQILERLKHLIHPISSSSPSLNMERAINSTKNAFDSLRLKKTKLSTNDDESPQIHTHFLSNKPHGLQSLTKRTRIASLGKKEHSISVPKSNISPSDFYNTNGTETLQSHAVSQLRRSNRFKDVSDPANSNSNSEFDDATTEFETPELFKPSLCYKFNDGSSYTITNQDFKCLFNKDWVNDSILDFFTKFYIESSIEKSIIKREQVHLMSSFFYTKLISNPADYYSNVKKWVNNTDLFSKKYVVIPINISYHWFSCIITNLDAILDFHQNKDKNDAINSDEISINNPLVNILTFDSLRQTHSREIDPIKEFLISYALDKYSIQLDKTQIKMKTCPVPQQPNMSDCGVHVILNIRKFFENPVETIDVWKNSKIKSKHFTAKMINKYFDKNERNSARKNLRHTLKLLQLNYISYLKKENLYEEVMQMEEKKSTNINNNENYDDDDEEIQIIENIDQSSKDNNAQLTSEPPCSRSSSISTTEREPTELHNSVVRQPTGEIITDNEDPVRAASPETASVSPPIRHNILKSSSPFISESANETEQEEFTSPYFGRPSLKTRAKQFEGVSSPIKNDQALSSTHDIMMPSPKPKRIYPSKKIPQLSSHVQSLSTDSMERQSSPNNTNIVISDTEQDSRLGVNSESKNTSGIVNRDDSDVNLIGSSLPNVAEKNHDNTQESNGNNDSLGKILQNVDKELNEKLVDIDDVAFSSPTRGIPRTSATSKGSNAQLLSNYGDENNQSQDSVWDEGRDNPILLEDEDP
With B2 the binding [2] was “binds”.

B3: N-terminally truncated, catalytically inactive Ulp2 (Ulp2CD-N400), Y2H fusion (domain or fragment, UniProt P40537 401-1034)
chain: KDVSDPANSNSNSEFDDATTEFETPELFKPSLCYKFNDGSSYTITNQDFKCLFNKDWVNDSILDFFTKFYIESSIEKSIIKREQVHLMSSFFYTKLISNPADYYSNVKKWVNNTDLFSKKYVVIPINISYHWFSCIITNLDAILDFHQNKDKNDAINSDEISINNPLVNILTFDSLRQTHSREIDPIKEFLISYALDKYSIQLDKTQIKMKTCPVPQQPNMSDSGVHVILNIRKFFENPVETIDVWKNSKIKSKHFTAKMINKYFDKNERNSARKNLRHTLKLLQLNYISYLKKENLYEEVMQMEEKKSTNINNNENYDDDDEEIQIIENIDQSSKDNNAQLTSEPPCSRSSSISTTEREPTELHNSVVRQPTGEIITDNEDPVRAASPETASVSPPIRHNILKSSSPFISESANETEQEEFTSPYFGRPSLKTRAKQFEGVSSPIKNDQALSSTHDIMMPSPKPKRIYPSKKIPQLSSHVQSLSTDSMERQSSPNNTNIVISDTEQDSRLGVNSESKNTSGIVNRDDSDVNLIGSSLPNVAEKNHDNTQESNGNNDSLGKILQNVDKELNEKLVDIDDVAFSSPTRGIPRTSATSKGSNAQLLSNYGDENNQSQDSVWDEGRDNPILLEDEDP
In the case of B3, the binding [3] is reported as “no binding”.
